Results reported in PubChem BioAssay AID624202 (National Center for Advancing Translational Sciences (NCATS), 2012).
Among all 380,000 compounds or so, about 4,000 (1.1%) were called active. Inconclusive results, whose numbers are uncertain, are shown with a selection of clear calls. Calls follow the shape of the dose curve; as a rule, active = well fitted activation curve with a large enough effect; inconclusive = small, poorly fitted or top-dose-only effect; inactive = no such curve, though single readings can be large or run the other way. Potencies of inconclusive entries are doubtful fits and often do not repeat.

Experiment: qHTS Assay to Identify Small Molecule Activators of BRCA1 Expression; also: nearly all actives have a fitted effect of over 80% in size
Conditions: MCF7-BRCA1-FFLuc reporter, luminescence, 48 h; activation: at 46.1 µM (top of the series), scaled: vehicle 0%, 10 µM genistein 100% unless noted
Procedure, shortened: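 Using MCF7 cells harboring a BRCA1 firefly luciferase reporter, plated 2 h before compound pinning, the screen measured luminescence after 48 h incubation. Responses were normalized to DMSO and 10 microM genistein, then fitted for concentration-effect.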
Potency is read from the fitted curve at half-maximal effect; tags tell the direction and shape of the fitted curve.

Compound	Potency	activation
O=C(C1CC1)N1CCN(c2nc3c(F)cc(F)cc3s2)CC1	inconclusive: 35.5 µM [activator, single point]	
CCN1C(=S)SC(=O)C1=C1C=C(C)N(CCO)C(C)=C1	inconclusive: 0.631 µM [activator, full curve, poor fit]	
Cc1ccc(/C=C/C(=O)NCc2cccs2)c(C)c1	active: 10 µM	
N#Cc1c(/N=C/c2cccs2)sc2c1CCC2	inconclusive: 11.2 µM [activator, partial curve, poor fit]	
COc1cc(Cl)ccc1OCc1cc(C(=O)N2CCN(C)C(=O)[C@@H]2C)no1	active: 10 µM	
O=C(Nc1ccc(CN2CCCCC2)cc1)Nc1ccccc1Cl	active: 7.08 µM	
Nc1nc(CSc2nc3ccccc3[nH]2)cs1	inconclusive: 11.2 µM [activator, partial curve, poor fit]	
COc1ccccc1N1CCN(C(=O)c2sc3nc(C)nc(N4CCN(c5ccccn5)CC4)c3c2C)CC1	inactive	
CS(=O)(=O)N(CC(=O)NCCSC1CCCCC1)c1ccccc1	inactive	
O=C(/C=C/c1cccc(F)c1)Nc1nccs1	inconclusive: 3.55 µM [activator, full curve, poor fit]	
CCCc1cc(C(=O)Nc2ccc(F)c(Cl)c2)no1	active: 11.2 µM	
CC(=O)c1cccc(NC(=S)NC(=O)c2ccc(C)cc2)c1	active: 7.94 µM	
COc1ccc(CNC(=O)CSc2ccsc2[N+](=O)[O-])cc1	active: 10 µM	
NC(=O)c1sc2nc(-c3cccs3)ccc2c1N	inconclusive: 7.08 µM [activator, partial curve, poor fit]	
COc1cc2cccc(OC)c(=O)c2c(O)c1OC	active: 10 µM	
O=C(Nc1cccc(Cl)c1)OCCOc1ccccc1	inconclusive: 11.2 µM [activator, partial curve, poor fit]	
COC(=O)CSc1nnc(-c2ccccc2OC)n1-c1ccc(C)cc1	inactive	
CC(C)NC(=O)CSc1nc(-c2ccccc2)cs1	active: 10 µM	
CN(C(=O)/C=C/c1ccc(F)cc1)C1CCCCC1	inconclusive: 2 µM [activator, full curve, poor fit]	
COc1ccccc1OCCC(=O)N1CCN(c2ccccc2OC)CC1	inactive	
O=C(NC(=S)Nc1ccccc1C(=O)O)c1ccc(-c2ccc(Br)cc2)o1	inconclusive: 15.8 µM [activator, single point]	
Cc1ccc(NC(=S)/N=C(\N)Nc2nc(C)c3ccccc3n2)cc1C	inactive	
Cc1ccc(C(=O)Nc2ccc3ccccc3n2)cc1	inconclusive: 0.501 µM [activator, full curve, poor fit]	
N/C(=N\OC(=O)C1CCCCC1)c1cccc([N+](=O)[O-])c1	inconclusive: 12.6 µM [activator, partial curve, poor fit]	
COc1ccc(COc2cccc(C=O)c2)cc1	inconclusive: 2 µM [activator, partial curve, poor fit]	
N#Cc1c(/N=C/c2ccco2)sc2c1CCCCC2	inconclusive: 14.1 µM [activator, partial curve, poor fit]	

Compound	Potency	activation
CCc1nnc(NC(=O)c2ccc(-c3ccc(C(C)=O)cc3)o2)s1	inactive	
Cc1ccc(-n2c(C)cc(C(=O)COC(=O)c3ccc[nH]c3=O)c2C)cc1		inconclusive: 61.4% [activator]
CCCc1cc(C(=O)NC2CCCCC2)no1	inconclusive: 15.8 µM [activator, partial curve, poor fit]	
CC(C)c1ccc(-n2cccc2/C=C2/C(=N)N3C=CSC3=NC2=O)cc1	inactive	
Cc1ccc(-c2noc(C3CCCN(C(=O)c4cccc([N+](=O)[O-])c4)C3)n2)o1 (stereo unspecified)	inconclusive: 15.8 µM [activator, single point]	
Clc1ccc2nc(CSCc3ccccc3)cn2c1	inconclusive: 1.78 µM [activator, full curve, poor fit]	
CCCCCOc1ccc(CSc2ncn[nH]2)cc1	active: 2.82 µM	
C#CCSc1nnc(-c2ccc(C)cc2)o1	inconclusive: 2.51 µM [activator, full curve, poor fit]	
CC1CCN2c3cc(Cl)ccc3CC3(C(=O)OC(C)(C)OC3=O)C2C1 (stereo unspecified)	inactive	
N/C(=N\OC(=O)C1CCCCC1)c1ccc(Cl)cc1	inconclusive: 11.2 µM [activator, partial curve, poor fit]	
C/C(=N\Nc1ccccc1C(=O)O)c1ccncc1	inconclusive: 5.01 µM [activator, partial curve, poor fit]	
O=C(Nc1ccc(SC(F)F)cc1)c1ccccc1F	inconclusive: 1.78 µM [activator, full curve, poor fit]	
CC(Cc1ccco1)NC(=O)c1ccc(C(F)(F)F)cc1 (stereo unspecified)	inconclusive: 1.26 µM [activator, full curve, poor fit]	
COc1ccc(-c2csc(N3CCSCC3)n2)cc1	inconclusive: 14.1 µM [activator, partial curve, poor fit]	
O=C(Nc1ccccc1Br)c1ccc(OC(=S)N2CCOCC2)cc1	active: 7.94 µM	
Cc1ccc(C)c(OCc2cc(C(=O)N3CCN(c4ccccc4)CC3)no2)c1	active: 7.08 µM	
O=C(Nc1ccc(-c2nc3ccccc3[nH]2)cc1)c1ccc2c(c1)OCO2	inconclusive: 2 µM [activator, partial curve, poor fit]	
Nc1c(C(=O)Nc2ccc3c(c2)OCCO3)nnn1Cc1ccc(Cl)cc1	inconclusive: 2 µM [activator, full curve, poor fit]	
COc1ccc(-c2csc(-c3cccs3)n2)cc1OC	inconclusive: 2.82 µM [activator, full curve, poor fit]	
COc1ccc(NC(=O)Cc2c(F)cccc2Cl)cc1	inconclusive: 15.8 µM [activator, single point]	
CN(C)c1ccc(/C=N/N2C(=S)SC(C)(C)C2N(O)C(=O)Nc2ccc([N+](=O)[O-])cc2)cc1 (stereo unspecified)	inactive	
Cc1ccc(C(=O)NCC(=O)N(C)Cc2ccccc2C)s1	active: 11.2 µM	
C/C(=N\NC(=S)NC1CCCCC1)c1ccc(Cl)c(Cl)c1	inactive	
Cn1c(=O)c2c(nc(NCc3ccc4c(c3)OCO4)n2Cc2ccc(F)cc2)n(C)c1=O		inactive: 2.75% [at 1.84 µM, scaled: vehicle 0%, 10 µM genistein 100%]
O=C(c1ccc(F)cc1)c1ccc(N2CCCCC2)cc1	active: 5.01 µM	
CC1(C)CC(N=c2cc(-c3ccccc3)oc3ccc(Cl)cc23)CC(C)(C)N1	inactive	

Compound	Potency	activation
CCOC(=O)c1oc2ccccc2c1N	inconclusive: 11.2 µM [activator, partial curve, poor fit]	
COc1ccc(-c2nc(-c3cccc(C)c3)no2)cc1OC	inconclusive: 4.47 µM [activator, full curve, poor fit]	
CCOc1ccc(NC(=O)c2cc3ccccc3cc2O)cc1	inconclusive: 3.55 µM [activator, partial curve, poor fit]	
O=C(CN1CCN(C(=O)CNC(=O)c2ccc(N3CCCC3=O)cc2)CC1)Nc1cccc(F)c1	inactive	
c1ccc(CNc2c(-c3cccc(SC4CCCCC4)c3)nc3ccccn23)cc1	inactive	
COc1ccc(-c2nn3c(-c4cc(C)[nH]n4)nnc3s2)cc1	inactive	
O=C(N/N=C1\CCc2ccccc21)c1ccc(O)cc1	active: 2 µM	
COc1ccc(-c2nnc(SCC(=O)c3ccc[nH]3)o2)cc1	inconclusive: 1.41 µM [activator, partial curve, poor fit]	
COc1cccc([C@@H]2Oc3ccc(Br)cc3C(=O)[C@H]2OC(=O)NC2CCCC2)c1	inactive	
COc1cccc(/C=C2\NC(=O)NC2=O)c1O	inconclusive: 11.2 µM [activator, partial curve, poor fit]	
CCn1c(=O)c(C(=O)Nc2nc3ccccc3[nH]2)c(O)c2ccccc21	inactive	
CC(=O)Nc1ccccc1OCc1nnc(-c2ccc(Cl)cc2)o1	inconclusive: 7.94 µM [activator, partial curve, poor fit]	
Cc1ccc(C)c(/C=N/Nc2nc3ccccc3c(=O)n2O)c1	inconclusive: 15.8 µM [activator, single point]	
O=C(COC(=O)Cc1n[nH]c(=O)c2ccccc12)Nc1ncc(Cl)cc1Cl	inactive	
CCN(C(=S)Nc1cc(S(=O)(=O)N2CCOCC2)ccc1Cl)c1cccc2ccccc12	inactive	
COc1cc(/C=N/NC(=O)c2[nH]nc3c2CCc2ccccc2-3)ccc1O	inactive	
COc1ncnc2c1cnn2-c1ccccc1	inconclusive: 12.6 µM [activator, partial curve, poor fit]	
Cc1cnc(NC(=O)COc2ccccc2)s1	inconclusive: 0.631 µM [activator, full curve, poor fit]	
Cc1ccc(C)c(N(C(=O)c2ccco2)C(C(=O)NC2CCCC2)c2ccco2)c1 (stereo unspecified)	inactive	
c1ncc2snnc2n1	inactive	
CC(C)Cc1ccc(/C=C/C(=O)N2CCCCC2)cc1	active: 12.6 µM	
COc1ccc2c(c1)C(=O)c1ccccc1CO2	inconclusive: 5.62 µM [activator, full curve, poor fit]	
Cc1ccc(C)n1-c1ccc(C(=O)Nc2ccccc2F)cc1	inconclusive: 11.2 µM [activator, partial curve, poor fit]	
O=C(Cn1c(=O)n(Cc2ccccc2)c(=O)c2sc3ccccc3c21)Nc1ccc(F)cc1	inactive	
